Laboratory results from the CheMixHub viscosity set.
This continues a long series; more values of the same kind are listed elsewhere.

Experiment: xn = mol fraction of the nth substance listed

OC[C@H]1O[C@@](CO)(O[C@H]2O[C@H](CO)[C@@H](O)[C@H](O)[C@H]2O)[C@@H](O)[C@@H]1O + O
Conditions	viscosity [mPa·s]
293.15 K, 100 kPa, x1 = 0.0005	1.03
293.15 K, 100 kPa, x1 = 0.013	1.95
293.15 K, 100 kPa, x1 = 0.034	6.17
293.15 K, 100 kPa, x1 = 0.05	15.54
293.15 K, 100 kPa, x1 = 0.073	58.08
293.15 K, 100 kPa, x1 = 0.09552	210
293.15 K, 101 kPa, x1 = 0.003	1.15
293.15 K, 101 kPa, x1 = 0.0058	1.309
293.15 K, 101.3 kPa, x1 = 0.002	1.095
298.15 K, 100 kPa, x1 = 0.09854	180
298.15 K, 101 kPa, x1 = 0.0009	0.93
298.15 K, 101 kPa, x1 = 0.001798	0.974
298.15 K, 101 kPa, x1 = 0.004484	1.114
298.15 K, 101 kPa, x1 = 0.005375	1.166
298.15 K, 101 kPa, x1 = 0.0058	1.161
298.15 K, 101 kPa, x1 = 0.008924	1.379
298.15 K, 101 kPa, x1 = 0.01799	2.182
298.15 K, 101 kPa, x1 = 0.02617	3.38
298.15 K, 101 kPa, x1 = 0.03453	5.37
298.15 K, 101 kPa, x1 = 0.04325	8.536
298.15 K, 101 kPa, x1 = 0.04968	12.23
298.15 K, 101 kPa, x1 = 0.06024	21.59
298.15 K, 101.3 kPa, x1 = 0.002	0.971
298.15 K, 101.32 kPa, x1 = 0.013	1.705
298.15 K, 101.32 kPa, x1 = 0.022	2.745
298.15 K, 101.32 kPa, x1 = 0.034	5.187
298.15 K, 101.33 kPa, x1 = 0.007154	1.271
298.15 K, 101.33 kPa, x1 = 0.01069	1.523
298.15 K, 101.33 kPa, x1 = 0.01421	1.826
298.15 K, 101.33 kPa, x1 = 0.0177	2.196
303.15 K, 100 kPa, x1 = 0.0224	2.397
303.15 K, 100 kPa, x1 = 0.102	160
303.15 K, 101 kPa, x1 = 0.003	0.9135
303.15 K, 101 kPa, x1 = 0.0058	1.037
303.15 K, 101.3 kPa, x1 = 0.002	0.87
308.15 K, 100 kPa, x1 = 0.02	2.075
308.15 K, 100 kPa, x1 = 0.0224	2.096
308.15 K, 100 kPa, x1 = 0.1058	140
308.15 K, 101 kPa, x1 = 0.003	0.8236
308.15 K, 101 kPa, x1 = 0.0058	0.9316
308.15 K, 101.3 kPa, x1 = 0.002	0.783
313.15 K, 100 kPa, x1 = 0.05	6.97
313.15 K, 100 kPa, x1 = 0.1102	120
313.15 K, 101 kPa, x1 = 0.003	0.749
313.15 K, 101 kPa, x1 = 0.0058	0.8435
313.15 K, 101.3 kPa, x1 = 0.002	0.711
318.15 K, 100 kPa, x1 = 0.115	110
318.15 K, 101 kPa, x1 = 0.003	0.6852
318.15 K, 101 kPa, x1 = 0.0058	0.7705
318.15 K, 101.3 kPa, x1 = 0.002	0.649
323.15 K, 100 kPa, x1 = 0.1204	100

[Cl-].[K+] + O
Conditions	viscosity [mPa·s]
298.15 K, 101.33 kPa, x1 = 0.07931	1
310.15 K, 101 kPa, x1 = 0.000189	0.6944
310.15 K, 101 kPa, x1 = 0.000938	0.6985
310.15 K, 101 kPa, x1 = 0.001929	0.7025
310.15 K, 101 kPa, x1 = 0.002695	0.7062
310.15 K, 101 kPa, x1 = 0.003679	0.7108
310.15 K, 101 kPa, x1 = 0.005197	0.7179
310.15 K, 101 kPa, x1 = 0.005988	0.7215
313.15 K, 101 kPa, x1 = 0.0468	0.7029
313.15 K, 101 kPa, x1 = 0.05806	0.721
313.15 K, 101 kPa, x1 = 0.06612	0.7358
313.15 K, 101 kPa, x1 = 0.07583	0.755
323.15 K, 101 kPa, x1 = 0.02711	0.5781
323.15 K, 101 kPa, x1 = 0.0468	0.6057
323.15 K, 101 kPa, x1 = 0.05806	0.6243
323.15 K, 101 kPa, x1 = 0.06612	0.6388
323.15 K, 101 kPa, x1 = 0.07583	0.6576
